Experimental data from article PMC4336329 (PLoS ONE, 2015).
About 2,200 (0.71%) of roughly 310,000 compounds showed an effect of 50% or more. The effect is printed as a negative number. The list shows a part of the results.

Molecular target: human ether-à-go-go-related gene (hERG) potassium channel (human, UniProt Q12809)
Test: primary screen, population patch clamp on CHO cells stably expressing hERG

Chain of human ether-à-go-go-related gene (hERG) potassium channel (Q12809 whole entry, looked up): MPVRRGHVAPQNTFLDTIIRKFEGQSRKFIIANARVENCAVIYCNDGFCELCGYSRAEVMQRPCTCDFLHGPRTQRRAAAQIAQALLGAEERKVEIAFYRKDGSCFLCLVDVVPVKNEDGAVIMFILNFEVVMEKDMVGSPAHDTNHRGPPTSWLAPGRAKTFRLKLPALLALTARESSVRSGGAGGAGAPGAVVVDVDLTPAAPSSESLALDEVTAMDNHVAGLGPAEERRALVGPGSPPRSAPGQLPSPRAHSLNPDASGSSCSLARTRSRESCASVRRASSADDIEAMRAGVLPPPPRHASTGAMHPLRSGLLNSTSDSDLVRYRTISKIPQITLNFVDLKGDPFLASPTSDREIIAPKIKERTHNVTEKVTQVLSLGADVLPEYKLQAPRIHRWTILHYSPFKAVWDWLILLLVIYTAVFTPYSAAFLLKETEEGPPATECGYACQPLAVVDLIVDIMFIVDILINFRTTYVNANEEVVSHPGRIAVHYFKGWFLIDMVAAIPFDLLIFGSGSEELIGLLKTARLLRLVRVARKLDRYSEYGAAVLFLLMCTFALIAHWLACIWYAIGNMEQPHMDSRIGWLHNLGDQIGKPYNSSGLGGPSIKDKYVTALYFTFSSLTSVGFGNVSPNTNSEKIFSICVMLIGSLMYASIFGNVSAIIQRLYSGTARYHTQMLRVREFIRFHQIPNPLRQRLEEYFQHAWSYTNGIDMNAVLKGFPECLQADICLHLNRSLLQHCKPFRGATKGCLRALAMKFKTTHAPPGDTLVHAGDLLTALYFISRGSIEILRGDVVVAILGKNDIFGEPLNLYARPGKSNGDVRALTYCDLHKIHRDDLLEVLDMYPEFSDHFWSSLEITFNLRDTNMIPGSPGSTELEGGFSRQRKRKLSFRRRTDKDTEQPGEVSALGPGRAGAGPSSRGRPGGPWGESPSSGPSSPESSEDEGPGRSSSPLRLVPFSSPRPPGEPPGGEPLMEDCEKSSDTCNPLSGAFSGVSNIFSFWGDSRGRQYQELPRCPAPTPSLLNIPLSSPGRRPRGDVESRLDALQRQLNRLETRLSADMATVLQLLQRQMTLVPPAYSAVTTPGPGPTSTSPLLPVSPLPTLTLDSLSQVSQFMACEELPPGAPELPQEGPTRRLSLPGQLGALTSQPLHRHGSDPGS

| SMILES | hERG current change (%, negative = inhibition) at 1uM [%] |
| --- | --- |
| CCN1CC2=C(OC(N)=C(C#N)C2c2cccs2)/C(=C\c2cccs2)C1 (stereo not shown) | 10.4 |
| Cc1ccc(S(=O)(=O)NCCCn2ccnc2)cc1 | 10.5 |
| O=C(c1cc(-c2cccc(Cl)c2)on1)N1CCOCC1 | 13.4 |
| O=C(CCCN1C(=O)/C(=C/c2ccccc2Cl)SC1=S)NNC(=O)c1cccnc1 | 11.9 |
| O=C(Nc1cc(Cl)ccc1O)C1CC(c2ccccc2Cl)=NO1 (stereo not shown) | 17.3 |
| O=C(CC1Nc2ccccc2NC1=O)Nc1ccc2c(c1)OCO2 (stereo not shown) | 14.5 |
| CCOC(=O)c1cccc(NC(=O)c2cccnc2)c1 | -4.05 |
| Cl.NC(CCC(=O)O)C(=O)O (stereo not shown) | 13.7 |
| CC1CCc2c(C(=O)NCCN3CCOCC3)csc2C1 (stereo not shown) | 9.44 |
| CC(C)CC(=O)Nc1nnc(-c2ccco2)s1 | -0.073 |
| COc1ccc(CNC(=O)c2ccc(CN3CCOCC3)cc2)cc1 | 9.3 |
| COc1ccc(Br)cc1CNC(=O)C1CCCN(c2nc3ccccc3o2)C1 (stereo not shown) | 2.43 |
| CCCc1ccc(-c2cc(C(=O)N/N=C/c3ccc([N+](=O)[O-])o3)c3ccccc3n2)cc1 | 2.64 |
| O=C(NCC1CCN(S(=O)(=O)c2ccccc2)CC1)Nc1ccccc1 | 16.7 |
| COc1ccc(-n2nc(C(=O)NCC(=O)NCC3COc4ccccc4O3)c3ccccc3c2=O)c(OC)c1 (stereo not shown) | 0.112 |
| Cc1cc2cc(CNC(=O)c3ccc(Br)o3)ccc2[nH]1 | -6.57 |
| COCCSc1nnc(NC(=O)C2CCCO2)s1 (stereo not shown) | 10.1 |
| Cc1[nH][nH]c(=O)c1[C@@H](c1ccccc1[N+](=O)[O-])C(C#N)C#N | 13 |
| COc1ccc(NC(=O)COC(=O)c2c3c(nc4ccccc24)CCCC3)cc1Cl | 12.9 |
| Cn1c(SCC(=O)NCc2cccs2)nnc1-c1ccncc1 | 12.8 |
| O=C(CCCn1c(=O)oc2ccccc21)NC1CCCCCC1 | 12.2 |
| CN(C)CCN(C(=O)c1ccc2ccccc2c1)c1nc2cc3c(cc2s1)OCCO3.Cl | 10.2 |

| SMILES | hERG current change (%, negative = inhibition) at 1uM [%] |
| --- | --- |
| O=C(NCc1ccc(F)cc1)C1CCCN(S(=O)(=O)c2cccc3nsnc23)C1 (stereo not shown) | 16.3 |
| CC(=O)NCCCc1nc2ccccc2n1Cc1ccccc1C | 5.62 |
| Cc1ccc(C(=O)NC2CCN(S(=O)(=O)c3ccccc3F)CC2)cc1 | 15.1 |
| CC(C)Sc1nc(N)c2c3c(sc2n1)CN(C)CC3 | 2.25 |
| CCN(C(=O)CCN1C(=O)S/C(=C\c2ccccc2)C1=O)C1CCS(=O)(=O)C1 (stereo not shown) | 11.6 |
| CC(C)[C@H](NC(=O)C1CC(=O)N(c2ccc3c(c2)OCCO3)C1)C(=O)NC1CCCC1 (stereo partly shown) | 15.4 |
| Cc1ccc(S(=O)(=O)N(CCC#N)CCN2CCCC2)cc1 | 2.4 |
| CC(=O)Nc1ccccc1C(=O)OCC(=O)c1ccc2ccccc2c1 | 6.13 |
| O=C(c1ccccc1)N1CCN(Cc2ccc3c(c2)OCO3)CC1 | 19.1 |
| Cc1ccc(COn2c(-c3ccc(Cl)cc3)nc3ccc([N+](=O)[O-])cc32)cc1 | 11.6 |
| CN(C)c1ccc(C(C(=O)NCC2CCCO2)N(Cc2ccco2)C(=O)c2snc(C(N)=O)c2N)cc1 (stereo not shown) | 13.8 |
| O=C(O)CCC(=O)NCc1ccc(C(=O)O)cc1 | 1.45 |
| CCNc1ccc(C(=O)OCC)cc1NC(=O)c1cccc(S(=O)(=O)N(C)c2ccccc2)c1 | 8.79 |
| Cc1cc(C)n(CC(O)COc2cccc(OCC(O)Cn3nc(C)cc3C)c2)n1 (stereo not shown) | 13.4 |
| CC(C)c1nc(SCC(=O)N2CC(=O)Nc3ccccc32)c2ccccc2n1 | 11 |
| N/C(=N\OC(=O)c1cccs1)c1ccc(Cl)cc1 | 11.2 |
| Nc1nnc(SCC(=O)Nc2ccc3nc(SCC(=O)Nc4ccccc4)sc3c2)s1 | 2.26 |
| COc1ccc(CNC(=O)COc2ccc(S(=O)(=O)N3CCCCC3)cc2)cc1 | 12.9 |
| CCCCN(C)CCNC(=O)CCNC(=O)Cn1ccc2ccccc2c1=O | 12.5 |
| CC(C)C(NC(=O)c1ccc(F)cc1)C(=O)N1CCN(C(=O)c2ccco2)CC1 (stereo not shown) | 0.644 |
| CN(C)c1cccc(C(=O)N2CCCC(C(=O)c3cc(F)ccc3F)C2)c1 (stereo not shown) | 7.89 |
